# In the supplement of paper PMC11417369:
# This is one part of the list.
# System: PfSIP2 AP2 domain 1 (GST-tagged)
# Assay: gcPBM binding intensity (ln(normalized median fluorescence intensity)); higher = stronger DNA binding
# Method in brief: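 An Agilent 4 × 180k array carrying primer-extended double-stranded 36-bp intergenic genomic probes and negative controls received GST-tagged P. falciparum DNA-binding domains expressed in E. coli, about 25 μg on average, for 1 h. The binding buffer contained 1× PBS, 1% milk, 0.2 mg/ml BSA, 0.5% salmon testes DNA and 0.03% Triton X-100. Binding intensity is the top Masliner-normalised natural-log median intensity across replicate spots of either probe orientation, read after Alexa488 anti-GST antibody staining and a 488 nm scan.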
row,Sequence,gcPBM binding intensity (ln)
1,TTTTATCACATTATTGCACACACATAAAGAAAAAAA [CACACA_site8922],7.65
2,TTATTTATTTATAATAGTACAATTTAATGATCTTCT [XGTACX_site4831],6.68
3,TGTTTTATACTAAATGAACACACACCCATATATATA [CACACA_site7912],7.64
4,CAATATATTTGATTTACACACTTACAATGTATATAA [CACACA_site2994],7.04
5,AATAATATATATATATATATAATAAAATATAAATAG [CACACA_negctrl_site1515],7.31
6,CCAACATGCCCACGCACACACAAAAAAAGCATGCAT [CACACA_site4217],7.23
7,ATATGAAATAATAATAGTACATAAAATAATTTTACT [XGTACX_site6964],6.83
8,ATAGAAATATATATATGTACATATAGATAAATCTAT [XGTACX_site7833],6.93
9,ATAAATACAGATAACACACACATATATATATATATA [CACACA_site5431],9.28
10,AAAAATAACGTAAATTGTACATGTAAAATTTTCTAT [XGTACX_site7158],6.96
11,TTTTAAGAATAAAATTGTACACATACATGTGTTCGC [XGTACX_site438],6.72
12,TTATTTATATATTCATGTACATAACATTTCATTCGA [XGTACX_site4388],6.93
13,ATATAAATTTTTTAGAGTACTAAAATAAAATAATAT [XGTACX_site2118],7.03
14,AAACAGAAGACATATACACACATACAAAAAAGTGCA [CACACA_site4699],7.62
15,TTCTCATTCAAATTAGTGCATTTTTGTTATTACATT,9.69
16,TGTGTATATATATAATGTACATAAAGATTTATATAT [XGTACX_site5835],7.14
17,TTTTCTAAAATGAATTGTACTTGATTATTTAAAAAA [XGTACX_site6097],6.71
18,TAAAAAATGAAAAAGCGTACATGTTTTCTTATATTA [XGTACX_site1722],6.87
19,ATACTAAAAAGTATCTGTACTTATTTTAAAAATAAA [XGTACX_site4116],7.08

row,Sequence,gcPBM binding intensity (ln)
1,TAAATAATTAAAATATGTACTGAAATGTAATTATTT [XGTACX_site5894],6.85
2,TATTTACTTATATGCACACATAAATGTGAATTATGG [CACACA_site3777],7.47
3,TGTATCATAAAAATAACACACGTATTTTTTTTTATT [CACACA_site1050],6.94
4,AGTATAAAATAAATGTGTACACAAGAAAATATGTTA [XGTACX_site8381],7.47
5,AAAATCACAAGACACACACACACAAAAAAAAAAAAA [CACACA_site6791],7.02
6,ATATATATATGTATGTGTCCACAAGGAGATATATAT [XGTACX_site783],8.4
7,AAAATATTTTAATGTTGTACATTAATATATTATATA [XGTACX_site2513],6.92
8,AGTAAATAATAGATCGCATGTAATAACTAGTAGGAA [TGCATGCA_site948],7
9,ACAATTGAAGAAATACGTACATAAAGAAAAACTAGT [XGTACX_site820],7.37
10,ATTATAAAGACATATACACACATACGTACATACATA [CACACA_site5893],7.22
11,TACATAAATATATGTGTGCACAATTTCGTATATTTA [GTGCAC_site9859],9.41
12,TGTACATTCGGAGTAAAAAAAAATTTATACAATTAC [CACACA_negctrl_site1451],6.69
13,AACAGATAAAAGGGTACACACATATATACCTGTACA [CACACA_site4285],7.2
14,TGTATTAAATTTTGAACACACAAAATAAAACATATA [CACACA_site1672],6.97
15,TTTCAAAAAAATAGCTATATTTATATTAATGCACGA [TGCATGCA_negctrl_site63],9.71
16,TAATAAAAATAAAATTGTACTAATAACATTTCATTA [XGTACX_site3703],6.68
17,TATATAACTGTCTTCAGTACACAATAAATAAAAATA [XGTACX_site8856],6.95
18,AAAGGTGTATATAATACACACGTGTGATTAAAATTG [CACACA_site8104],6.81
19,AACTTTGAGACATAGTGTACTTACACAATCTTAATA [XGTACX_site3712],6.85

row,Sequence,gcPBM binding intensity (ln)
1,ACATTTTTTTTTTTTTTTCTTTTTCTTTTTCTTTTT [CACACA_negctrl_site1295],6.98
2,CATATTTGATACAAGTGTACTTTATTTAAAAATTCT [XGTACX_site8408],7.12
3,TCGTATCTATTGAGGGTGCCTCTATAATTGATACAA [GTGCAC_site9636],8
4,AACCTAAGCATTCTTCAAATTATATATGTAAAATGA [CACACA_negctrl_site261],6.87
5,TAATATAATATATGCACACAAATATGTATTTATGTG [CACACA_site5210],7.07
6,GAAAAAATAAAATAAAGTACATAACTATAATAAAAA [XGTACX_site4807],7.03
7,CTTACACCCATATATACACACATGTATATTTTATAT [CACACA_site4462],7.23
8,TACTCCTCAATATTATGTACATATAATAGTTATAAA [XGTACX_site8551],7.11
9,ATATATAAACACTCTTGTACATAATAATGTATATAT [XGTACX_site2451],7.11
10,ACGCACGAAATAAATACATGCATATTGTAAAAATTA [TGCATGCA_site310],7.26
11,GGGAATATATTCAATTGTACATTCTTATTTTATCCA [XGTACX_site8480],6.8
12,TCTTTTTTTTTACATACTTTTTTCCTTTTTTTTTTA [CACACA_negctrl_site1429],6.86
13,TATTTAATGCAAAAACGTACATAAATAACATTCACA [XGTACX_site5356],7.05
14,TATATATATATTAGTGGTACAAGATTTTTTTCTTTT [XGTACX_site4619],8.68
15,TATAAACACCCATATAAACACACATACATACATACA [CACACA_site8791],8.18
16,TCTTGTAGATATATTTGTACATATATTTATGGGTAT [XGTACX_site1139],7.24
17,CTAGACTTTTTACAATGTACATATTTATGTATTATT [XGTACX_site1833],7.01
18,TTTTTTCATAAATAATGTACATATATATATATATAT [XGTACX_site3620],9.46
